# Reference: PubChem BioAssay AID1347073 (National Center for Advancing Translational Sciences (NCATS), 2019)
# Screen size: about 45,000 compounds; about 200 (0.44%) were called active. Roughly 7% stayed inconclusive and do not appear here. Calls come from the whole dose curve; as a rule, active = well fitted activation curve with a large enough effect; inconclusive = small, poorly fitted or top-dose-only effect; inactive = no such curve, though single readings can be large or run the other way. The list shows a part of the results.
# Test: qHTS of TDP-43 Inhibitors: NCGC Sytravon Library Screen; note: 0% is about no effect; nearly all actives have a fitted effect of over 55% in size
# Conditions: yeast TDP-43 toxicity rescue, BacTiter-Glo growth, 24 h; series mostly up to 46.1 µM; growth rescue (activation): at the top concentration
# Summary of the method: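 TDP-43-expressing yeast, pregrown in raffinose, seeded at OD600 0.02 in galactose medium with compound for 24 hr at 30 deg C. Growth read by BacTiter-Glo luminescence, so rescue of toxicity appears as activation.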
row,Compound,growth rescue (activation)
1,O=C(COc1ccccc1[N+](=O)[O-])OC1CCS(=O)(=O)C1 (stereo not drawn),inactive: 2.41%
2,Cc1sc2nc(CN(C(=O)NCc3ccccc3)C3CCCC3)[nH]c(=O)c2c1C,inactive: 8.31%
3,CCc1ccc(CNCCNC(=O)c2ccco2)cc1,inactive: -36.6%
4,CCCC12CN3CC(C)(CN(C1)C3c1ccc3c(c1)OCO3)C2=O (stereo not drawn),inactive: 27.8%
5,O=C(CC1Nc2ccccc2NC1=O)Nc1ccccc1 (stereo not drawn),inactive: 17.6%
6,CN(C(=O)CSc1cc(Cl)ccc1Cl)C1CCS(=O)(=O)C1 (stereo not drawn),inactive: 0.372%
7,Cc1ccc(OC(C)C(=O)N(Cc2cccs2)C2CCS(=O)(=O)C2)cc1C (stereo not drawn),inactive: -14.7%
8,COc1ccc(CCNC(=O)C2CC(=O)N(c3ccc(C)cc3)C2)cc1OC (stereo not drawn),inactive: 5.62%
9,O=C(Nc1nc(-c2cccc([N+](=O)[O-])c2)cs1)C(c1ccccc1)c1ccccc1,inactive: -23.1%
10,COc1cc(C(=O)Nc2sc3c(c2C(=O)O)CCC3)cc(OC)c1OC,inactive: 5.38%
11,COc1ccc(-n2cc(C(=O)Nc3cc([N+](=O)[O-])ccc3OC)c3ccccc3c2=O)cc1,inactive: 24.3%
12,O=C(COC(=O)c1cc(-c2cccs2)nn1-c1ccccc1)Nc1cc([N+](=O)[O-])ccc1Cl,inactive: -2.12%
13,O=C(c1cccc(S(=O)(=O)N2CCN(c3ccc(F)cc3)CC2)c1)N1CCCC1,inactive: -25.5%
14,Cc1cccc(C(=O)NC(=S)Nc2ccccc2C(=O)O)c1,inactive: -13%
15,O=C(CNS(=O)(=O)c1ccccc1)NCc1ccco1,inactive: 10.3%
16,O=C(O)Cc1ccc(NC(=O)COc2ccc3ccccc3c2)cc1,inactive: -6.75%
17,CC(C)(C)c1ccc(C(=O)NCCC(=O)NNC(=O)COc2ccccc2F)cc1,inactive: -2.83%
18,O=S(=O)(c1cccc(C(F)(F)F)c1)N1CCC(c2nc3ccccc3[nH]2)CC1,inactive: 4.33%
19,O=C1CCC(C(=O)OCC(=O)Nc2cc(Cl)ccc2F)=NN1,inactive: 20.2%
20,Cc1cccc(CCNC(=O)CN(C)S(=O)(=O)c2cnc[nH]2)c1,inactive: 11.5%
21,O=C(CSc1nnc(NC(=O)c2ccc(F)cc2)s1)NC1CCCC1,inactive: -4.56%
22,O=C(NCc1ccco1)c1ccc(Cl)s1,inactive: 18.9%
23,O=Cc1ccc(OCC(=O)NCC2CCCO2)cc1 (stereo not drawn),inactive: -5.36%

row,Compound,growth rescue (activation)
1,CCN(CC)CCN(CC(=O)N(C1CCCCC1)C1CCCCC1)C(=O)c1cccnc1,inactive: 2.72%
2,COc1cccc(/C=C/C(=O)OCC(=O)Nc2cccc(S(=O)(=O)N(C)C)c2)c1,inactive: -14.1%
3,Cc1cc(C)n(/N=C/c2cccc([N+](=O)[O-])c2)c(=O)c1,inactive: 0.0706%
4,COc1ccc(/C=C\c2nc(=O)c3ccccc3o2)cc1,inactive: -13.8%
5,Cc1nc2cc(C(=O)N3CCc4ccccc43)ccc2n1-c1ccc(F)c(F)c1,inactive: 28.6%
6,NS(=O)(=O)c1ccc(CCNC(=O)c2ccccc2OCc2ccc(F)cc2)cc1,inactive: 6.99%
7,CCOC(=O)c1cc(C#N)c(SCc2cccc3ccccc23)nc1C,inactive: -25.8%
8,O=C(N/N=C/c1ccccc1C(=O)O)C(=O)N1CCCCC1,inactive: 8.07%
9,Cc1ccc(NC(=O)c2ccc3c(c2)CCN3S(C)(=O)=O)cc1C,inactive: 3.31%
10,O=C(CCCNC(=O)c1ccc(Cl)cc1)NCc1ccc(F)cc1,inactive: 9.21%
11,CCn1c(C)cs/c1=N\C(=S)Nc1ccccc1C,inactive: 5.65%
12,Nc1nc2n(n1)C(c1ccco1)CC(c1ccc(Cl)cc1Cl)N2 (stereo not drawn),inactive: -3.08%
13,CSc1ccccc1C(=O)NC1CCSc2ccccc21 (stereo not drawn),inactive: 34.8%
14,O=C(N/N=C/c1cccs1)c1cccnc1,inactive: 0.651%
15,Cc1ccc2nc(Cl)c(C3CC(c4cccs4)=NN3C(=O)CCCC(=O)O)cc2c1 (stereo not drawn),inactive: 2.03%
16,O=c1c(C(c2ccc(O)cc2)c2c(O)nc3n(c2=O)CCCS3)c(O)nc2n1CCCS2,inactive: 1.88%
17,O=C(Cc1ccccc1)Nc1ccc(NC(=O)c2cccc(Cl)c2)cc1,inactive: 9.83%
18,Cc1cc(C)n2nc(SCC(=O)N3CCC(C)CC3)nc2n1,inactive: 13.9%
19,COc1ccccc1OCC(=O)Nc1ccc2c(c1)OCO2,inactive: 17.3%
20,Cc1ccccc1C(=O)NCCCNC(=O)c1cnccn1,inactive: 12%
21,O=C(c1ccco1)N1CCC(c2nc3c(nnn3Cc3ccc(F)cc3)c(=O)[nH]2)CC1,inactive: 25.9%
22,CNc1c(NS(=O)(=O)c2ccc(C3CCCCC3)cc2)c(=O)oc2ccccc12,inactive: -5.71%
23,NC(=O)COC(=O)c1ccc(S(=O)(=O)N2CCCCCC2)cc1,inactive: 14.7%

row,Compound,growth rescue (activation)
1,O=C(CSc1ccccc1[N+](=O)[O-])NC1CCS(=O)(=O)C1 (stereo not drawn),inactive: -6.79%
2,CCOC(=O)Cn1nc(C)c(NC(=O)COc2ccc(OC)cc2)c1C,inactive: 22.9%
3,c1cc(-c2ccc(CN3CCOCC3)cc2)n2ccnc2c1,inactive: -5.59%
4,COc1ccc(OC)c(-n2c(-c3ccc(O)cc3O)n[nH]c2=S)c1,inactive: 14.2%
5,COc1ccccc1C(=O)NNC(=S)Nc1ccccc1,inactive: 1.58%
6,CC(Oc1ccccc1)c1nnc(SCC(=O)NC2CC2)n1C (stereo not drawn),inactive: 3.75%
7,O=C(Cn1nnc(-c2ccccc2Cl)n1)Nc1cccc(S(=O)(=O)N2CCCC2)c1,inactive: -8.21%
8,Cc1ccc(Cn2nnc3c(=O)[nH]c(C4CCN(S(=O)(=O)Cc5ccccc5)CC4)nc32)cc1,inactive: -7.66%
9,O=S(=O)(CCc1ccncc1)C1Cc2cccc3cccc1c23 (stereo not drawn),inactive: -15.1%
10,C/C(=N\NC(=O)c1ccccc1)c1ccc(C)c([N+](=O)[O-])c1,inactive: 20.2%
11,COc1ccc(CN(C(=O)c2ccc(-c3ccccc3)[nH]2)C(C(=O)NC(C)(C)C)c2ccncc2)cc1 (stereo not drawn),inactive: 15.2%
12,COc1ccccc1NS(=O)(=O)c1ccc2c(c1)OCCO2,inactive: -5.17%
13,NC(c1csc(Nc2ccccn2)n1)C1CCCCC1 (stereo not drawn),inactive: 1.55%
14,CCc1cccc(NC(=S)N(CCCN2CCOCC2)C(C)c2cc3cccc(OC)c3o2)c1 (stereo not drawn),inactive: 12.5%
15,O=Cc1cccn1-c1nccc(-c2ccco2)n1,inactive: 20.4%
16,O=C(N/N=C/c1ccc([N+](=O)[O-])o1)c1cn(-c2ccccc2)nc1-c1ccc(F)cc1,inactive: 0.817%
17,Cc1ccc(C[n+]2cc(-c3ccc(Cl)cc3)n3c2CCC3)cc1,inactive: 1.97%
18,COc1cc(/C=C(\C#N)C(=O)NC2CCCCC2)ccc1OCc1ccc(C(=O)O)cc1,inactive: 16.6%
19,COc1ccccc1CNc1nc(NCc2ccccc2)nc2ccsc12,inactive: 9.72%
20,O=C(NCC(c1cccs1)N1CCOCC1)c1cc([N+](=O)[O-])ccc1Cl (stereo not drawn),inactive: 20.8%
21,CN(CCO)c1ccc(C=NNc2ccc([N+](=O)[O-])cc2S(=O)(=O)Nc2ccccc2C(=O)O)cc1,inactive: -41.9%
22,COc1cc(CN2CC(=O)N(c3ccc(C)c(Cl)c3)C2=S)cc(OC)c1OC,inactive: 13.3%
